Some of the results follow. At the low end of the ranking, values are background and their order means little.

The assay has as its target MAX:MAX (p21) (UniProt P61244-2). Nature of the assay: protein-binding microarray (anti-MAX antibody). The following applies: PBM: 15 mM Tris-HCl pH 7.5, 100 mM KCl, 0.075% NP40, 7.5 mM beta-mercaptoethanol, 375 ng/ul BSA, 8 ng/ul poly(dA-dT):(dA-dT), 550 ng complex, 60 min, room …; high values mean tight binding; double strand, one strand shown; sequences stand for … in CCGGC…TTAATAGCTAAGATTACTATATCGACG
Regarding TGAATTTGGGTA, the binding signal (log2 normalized fluorescence) was -1.17.

Consider TGACGGGGTGTA, for which the binding signal (log2 normalized fluorescence) was found to be 0.602.

The sequence TGAATGGGTGTA returned a binding signal (log2 normalized fluorescence) of 0.375.

Sequence TGAGGAGGGGTA showed a binding signal (log2 normalized fluorescence) of 1.06.

The sequence TGACTCCTGATA gave a binding signal (log2 normalized fluorescence) of -0.197.

TGACACGCCCTA: the binding signal (log2 normalized fluorescence) was 2.49.

TGAATGGAAGTA displayed a binding signal (log2 normalized fluorescence) of 0.319.

On to TGACGTTGCGTA, for which the binding signal (log2 normalized fluorescence) came to 0.026.

As for TGACACGTGCAC, the binding signal (log2 normalized fluorescence) is 3.13.

For the sequence TGAGTAGCCGTA, the binding signal (log2 normalized fluorescence) is -1.24.

In the case of TGATTCAAGGTA, the binding signal (log2 normalized fluorescence) was -0.736.

Take TGATTTCGAGTA: the binding signal (log2 normalized fluorescence) is -0.909.

Regarding TGACAACACGTA, the binding signal (log2 normalized fluorescence) was 0.856.

Regarding AATACAGCTTAC, the binding signal (log2 normalized fluorescence) was found to be 0.359.

As to TGACACGTGTGT, the binding signal (log2 normalized fluorescence) amounted to 3.37.

The sequence TGAGGCCCCGTA displayed a binding signal (log2 normalized fluorescence) of -0.911.

In the case of TGAACGGTAGTA, the binding signal (log2 normalized fluorescence) was -0.717.

TGACGCAAAGTA registered a binding signal (log2 normalized fluorescence) of -0.646.

Consider TGAGCCACCGTA, for which the binding signal (log2 normalized fluorescence) is -0.374.

TGACTACGGGTA: the binding signal (log2 normalized fluorescence) is -0.601.

The sequence TGAGCCAAGGTA yielded a binding signal (log2 normalized fluorescence) of -0.781.

The sequence TGGGCACCCATT had a binding signal (log2 normalized fluorescence) of 0.0618.

TGACACCGAGTA had a binding signal (log2 normalized fluorescence) of 0.12.

TGACGGAGTGTA returned a binding signal (log2 normalized fluorescence) of -0.121.

Sequence TGATGATTGGTA returned a binding signal (log2 normalized fluorescence) of -0.267.

TGAGGCGACGTA yielded a binding signal (log2 normalized fluorescence) of -0.682.

TGAGCCGCGGTA came in with a binding signal (log2 normalized fluorescence) of -0.96.

The sequence TGATGCTATGTA showed a binding signal (log2 normalized fluorescence) of -0.213.

TGACCTACAGTA had a binding signal (log2 normalized fluorescence) of -0.385.

On to TGAGCGCATGTA, for which the binding signal (log2 normalized fluorescence) was found to be 2.64.

Sequence TGACACGTGAAA yielded a binding signal (log2 normalized fluorescence) of 3.09.

Turning to TGACCACACGTA, the binding signal (log2 normalized fluorescence) came out at 1.68.

Consider TTACACGATGTA, for which the binding signal (log2 normalized fluorescence) was 2.37.

As to GAGCACGTGGTA, the binding signal (log2 normalized fluorescence) was 3.

In turn, TGAGTAGCGGTA came in with a binding signal (log2 normalized fluorescence) of -0.976.

Take TGACAAAGCGTA: the binding signal (log2 normalized fluorescence) was -0.663.

For TGACTGATAGTA, the binding signal (log2 normalized fluorescence) was -0.253.

TGAGGATCAGTA showed a binding signal (log2 normalized fluorescence) of -0.828.

In turn, TGATAGCATGTA had a binding signal (log2 normalized fluorescence) of 1.69.

As to TGATCTACCGTA, the binding signal (log2 normalized fluorescence) is -1.27.

On to TGAAATGTGTTA, for which the binding signal (log2 normalized fluorescence) turned out to be 1.65.

As to TGACGTGGCGTA, the binding signal (log2 normalized fluorescence) turned out to be 1.44.

In turn, TGATTCTTCGTA showed a binding signal (log2 normalized fluorescence) of -1.26.

For TGACACGTCGTA, the binding signal (log2 normalized fluorescence) is 1.79.

As to TGAAATCCGGTA, the binding signal (log2 normalized fluorescence) was -1.23.

With CGACACGCGGTT, the binding signal (log2 normalized fluorescence) worked out at 3.18.

The sequence AGACACTTGGTA returned a binding signal (log2 normalized fluorescence) of 1.06.

TGAGAACAAGTA: the binding signal (log2 normalized fluorescence) is -0.676.

In turn, TGACAATTAGTA gave a binding signal (log2 normalized fluorescence) of -0.824.

Sequence TGAGCAGGCGTA gave a binding signal (log2 normalized fluorescence) of 0.16.

Turning to TGATGACCCGTA, the binding signal (log2 normalized fluorescence) is 0.112.

Take TGAGACGTGGGA: the binding signal (log2 normalized fluorescence) worked out at 0.979.

CGACTAGTGGTA gave a binding signal (log2 normalized fluorescence) of -0.455.

Consider TGAGGGAGTGTA, for which the binding signal (log2 normalized fluorescence) was -0.256.

Turning to TGAACGTAGGTA, the binding signal (log2 normalized fluorescence) is -0.389.

With TGACTGGGCGTA, the binding signal (log2 normalized fluorescence) is -0.479.

TGACTAACCGTA yielded a binding signal (log2 normalized fluorescence) of -0.733.

For TGAAGCCGGGTA, the binding signal (log2 normalized fluorescence) was -0.857.

Sequence TGACGGAACGTA registered a binding signal (log2 normalized fluorescence) of -0.575.

In the case of TGAAAGGCCGTA, the binding signal (log2 normalized fluorescence) was -0.667.

In turn, TGACATATGGTA had a binding signal (log2 normalized fluorescence) of 2.15.

Consider TGATAATTAGTA, for which the binding signal (log2 normalized fluorescence) is -1.33.

As to TGAATGATGGTA, the binding signal (log2 normalized fluorescence) was found to be 0.458.

Sequence TGAGTACGGGTA yielded a binding signal (log2 normalized fluorescence) of -0.89.

For TGATGTGCTGTA, the binding signal (log2 normalized fluorescence) came out at 0.725.

For the sequence TGAGGCGCAGTA, the binding signal (log2 normalized fluorescence) was -0.509.

Sequence TGATCTCCGGTA yielded a binding signal (log2 normalized fluorescence) of -1.13.

Consider TGAGACTCCGTA, for which the binding signal (log2 normalized fluorescence) was -0.692.

Take TGACCGTACGTA: the binding signal (log2 normalized fluorescence) is -0.426.

With TGAACTAGTGTA, the binding signal (log2 normalized fluorescence) was -0.473.

In the case of TGATTAGACGTA, the binding signal (log2 normalized fluorescence) is -0.973.

As for TGAACCAGGGTA, the binding signal (log2 normalized fluorescence) was -0.134.

As to TGAAGATCGGTA, the binding signal (log2 normalized fluorescence) was -0.799.

Turning to TTATACGTGGTA, the binding signal (log2 normalized fluorescence) was 1.14.

TGACAGGCCGTA: the binding signal (log2 normalized fluorescence) is 0.495.

TGAGACGGTGTA displayed a binding signal (log2 normalized fluorescence) of -0.88.

The sequence TGACGACAGGTA gave a binding signal (log2 normalized fluorescence) of -0.411.

With TGACGTGTGGTA, the binding signal (log2 normalized fluorescence) was found to be 1.73.

TGATGGTCGGTA returned a binding signal (log2 normalized fluorescence) of 0.134.

As for TGAGCGAGCGTA, the binding signal (log2 normalized fluorescence) is -0.539.

As for TGAAGTGGAGTA, the binding signal (log2 normalized fluorescence) was -0.697.

Regarding TGAGCCATGGTA, the binding signal (log2 normalized fluorescence) is 0.345.

On to TGAGTGCACGTA, for which the binding signal (log2 normalized fluorescence) is 0.795.

Sequence TGAGTATTGGTA had a binding signal (log2 normalized fluorescence) of -0.979.

As to GGGCACGTGGGA, the binding signal (log2 normalized fluorescence) worked out at 3.48.

With TGAGCACCAGTA, the binding signal (log2 normalized fluorescence) was found to be 0.0594.

Regarding TGACAGACTGTA, the binding signal (log2 normalized fluorescence) is -0.0269.

Sequence TGACCGGACGTA showed a binding signal (log2 normalized fluorescence) of -0.306.

The sequence TGACGGACCGTA gave a binding signal (log2 normalized fluorescence) of -0.471.

In turn, TGATGCAAAGTA returned a binding signal (log2 normalized fluorescence) of -0.291.

TGAAACATGGTA gave a binding signal (log2 normalized fluorescence) of 1.55.

Turning to TGAGAGAAAGTA, the binding signal (log2 normalized fluorescence) was -1.15.

For TGACAACTAGTA, the binding signal (log2 normalized fluorescence) was -0.327.

In turn, TGACAGATGTTA came in with a binding signal (log2 normalized fluorescence) of 1.11.

Sequence TGAGACTAAGTA displayed a binding signal (log2 normalized fluorescence) of -0.885.

Turning to TGAAATGGAGTA, the binding signal (log2 normalized fluorescence) is -0.309.

With AGACACGCGGTC, the binding signal (log2 normalized fluorescence) stood at 3.2.

TGATTAACTGTA displayed a binding signal (log2 normalized fluorescence) of -0.965.

Consider TGAGCGGGTGTA, for which the binding signal (log2 normalized fluorescence) was 0.021.

Turning to TGACAATAAGTA, the binding signal (log2 normalized fluorescence) was -0.342.

In the case of TGAGCTTCCGTA, the binding signal (log2 normalized fluorescence) is -1.15.

Consider TGAAGCGCCGTA, for which the binding signal (log2 normalized fluorescence) was -0.344.

TGAAGGTTAGTA: the binding signal (log2 normalized fluorescence) was -0.583.

TGAATGGATGTA displayed a binding signal (log2 normalized fluorescence) of 0.312.

Regarding TGAGCTTACGTA, the binding signal (log2 normalized fluorescence) was -0.904.

The sequence TGGCACGGGGTA returned a binding signal (log2 normalized fluorescence) of 2.89.

On to TGAGGGCAAGTA, for which the binding signal (log2 normalized fluorescence) was -0.359.

In turn, TGACCAAAGGTA showed a binding signal (log2 normalized fluorescence) of -0.321.

TGAACGCTCGTA returned a binding signal (log2 normalized fluorescence) of -0.302.

Take TGATGGTTAGTA: the binding signal (log2 normalized fluorescence) is -0.0548.

Take TGACACACAGTA: the binding signal (log2 normalized fluorescence) came out at 0.891.

For the sequence TGAGGTGCAGTA, the binding signal (log2 normalized fluorescence) is -0.241.

Turning to TGATCACTTGTA, the binding signal (log2 normalized fluorescence) was -0.295.

On to TGACACAGGGTA, for which the binding signal (log2 normalized fluorescence) was found to be 0.747.

With TGACACGTCGTT, the binding signal (log2 normalized fluorescence) came out at 1.92.

On to TGATTTCTTGTA, for which the binding signal (log2 normalized fluorescence) was -1.29.

TGACGGCGCGTA came in with a binding signal (log2 normalized fluorescence) of 0.838.

As to TGAATTTTGGTA, the binding signal (log2 normalized fluorescence) was -1.47.

On to TGACTGCTCGTA, for which the binding signal (log2 normalized fluorescence) is -0.19.

For TTCTACGAAGGA, the binding signal (log2 normalized fluorescence) was -1.2.

TGTCACCTGGTC: the binding signal (log2 normalized fluorescence) was 2.62.

The sequence TGAGAAAAAGTA yielded a binding signal (log2 normalized fluorescence) of -1.26.

Turning to TACAGTCATGGA, the binding signal (log2 normalized fluorescence) is 0.645.

Sequence TGTCTCGTGGTA came in with a binding signal (log2 normalized fluorescence) of 3.18.

In the case of TGACTTATTGTA, the binding signal (log2 normalized fluorescence) was -0.685.

Sequence TGAGATCCCGTA displayed a binding signal (log2 normalized fluorescence) of -1.12.

On to TGAGCCCCAGTA, for which the binding signal (log2 normalized fluorescence) is -0.996.

As to TGACGTAAGGTA, the binding signal (log2 normalized fluorescence) stood at 0.0183.

TGAGTGGCAGTA returned a binding signal (log2 normalized fluorescence) of 0.141.

TGAGCATTGGTA had a binding signal (log2 normalized fluorescence) of 0.347.

As for TCTCACGTGGTC, the binding signal (log2 normalized fluorescence) turned out to be 3.06.

Sequence TGAAGTGCTGTA had a binding signal (log2 normalized fluorescence) of 0.0803.

TGAGTCGTGGTA yielded a binding signal (log2 normalized fluorescence) of 0.516.

The sequence TGAAAATTCGTA had a binding signal (log2 normalized fluorescence) of -1.04.

TGACACCTGTTA: the binding signal (log2 normalized fluorescence) stood at 2.39.

TGACTTACGGTA came in with a binding signal (log2 normalized fluorescence) of -0.375.

Sequence TGAAGCCGAGTA displayed a binding signal (log2 normalized fluorescence) of -1.17.

The values above are taken from article PMC5515408.
